Laboratory results as given in the supplement of paper PMC3334620.
Over roughly 33,000 sequences, “E-score (-0.5 to 0.5)” has its median near -0.054; the highest 2% begin near 0.39. The list shows a part of the results.

target: Ylr278c (UniProt Q05854); assay: PBM E-score (8-mer binding enrichment) (E-score (-0.5 to 0.5)); higher = stronger / more preferred TF binding; most listed sequences are background and not binding sites; conditions: protein concentration: 200 nM; construct: GST-DNA-binding domain
How it was run: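 Detection of bound protein used fluorescent anti-GST, with scans normalised by masliner. The proteins were GST-tagged yeast transcription factors applied at about 100-200 nM to universal all-10-mer Agilent arrays made double-stranded by primer extension. Each ungapped eight-base word, pooled with its reverse complement, was scored with an E-score from the Universal PBM Analysis Suite.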

Sequence	PBM E-score
GTAAGCTA	-0.0576
CAAACAAC	-0.0522
ATAAACCC	0.105
ACTTCTGA	-0.171
ACTACCTC	0.00874
AATTTAAG	-0.0792
AATTCCAG	0.103
CATCCTCA	-0.0435
CAGTGATA	-0.055
ACATGTCC	0.199
AAAAGCTT	-0.0605
CAGTACAA	-0.131
GTACGGGA	0.019
AATCTCAC	-0.174
CCATTGGG	-0.287
GGCAGTAC	-0.111
ATTTCAAG	-0.115
AAGAGAGA	-0.321
GCCGGTAC	0.242
GTATACAA	0.00253
GCGCATCC	0.136
ATACTTGG	-0.252
GGGGAGTA	0.0376
AATGGGTG	-0.0286
ATCTATGG	-0.0799

Sequence	PBM E-score
GTGTCAAA	-0.0809
AAAGGCCG	0.37
ACGAGACA	-0.0328
ACTGTTCT	-0.104
CATTAACC	0.0637
ATCAGTCG	-0.025
CCTACGTC	-0.0729
ATGAATTA	-0.228
AAAACCAA	-0.129
ATTCACTC	0.0175
CATTCCCG	0.29
GAATACAA	0.101
AGCGAAAT	0.0364
GCGAAAGA	-0.141
GACAAAAA	0.124
CGTTGCGC	0.0941
ATTGGCTC	-0.0867
CGAAGGTC	0.0563
ATCGGGGG	0.209
ACGCCCTC	0.138
AATGATCA	-0.218
GCATTCGC	-0.0626
CTACTTTA	-0.0983
CTCGTGTC	-0.216
TGAGTCAA	-0.201

Sequence	PBM E-score
AGCCAGCA	-0.22
AACGGTAC	-0.0512
GCCTCAGC	-0.112
AATTATGC	0.00469
CATCTATA	-0.0607
CCGCCCGG	0.402
GAGCAGTA	0.0369
AGCGACCA	-0.115
CTCTGAAA	-0.19
ATTAAGCC	0.14
CGTTAGTC	0.00755
ATCTCCCG	0.301
ACTAGGAA	-0.0851
CCGCCGAC	0.293
GCAAATGC	-0.0446
ATCGAATC	0.0503
AATTAGGT	-0.161
CGGACGTA	0.326
ATGGCTAA	-0.0485
ATAGCTAA	-0.148
AAACGCGG	0.339
AAGATTCT	-0.242
GGATGTAC	-0.0654
GTTCACGA	-0.0592
CTCTACAG	-0.308

Sequence	PBM E-score
CAGTTCTA	-0.231
CGGGATGA	0.231
CAGTTTAG	-0.0964
CAAACCTC	-0.114
CCCTCGTC	0.0775
CGTCCTGA	-0.284
CTCAAAAC	-0.0982
CAAAACCA	-0.113
GAATCTTA	-0.0176
ATAAGTGC	-0.179
GATTCACA	-0.101
AAAACCTG	-0.221
GTCTCAAA	-0.164
GTGGCTGA	0.0849
GTAGGGAA	-0.0225
GTCTTACA	-0.252
ACAGCTTC	-0.182
CAAACACC	0.106
ATTCCGGC	0.463
CAATCTGC	-0.0859
GATGAGTA	-0.154
CAGCGTCC	0.0707
CTCTAAGA	-0.0471
GACTCAAA	-0.24
AACGCTCA	-0.187

Sequence	PBM E-score
CCACTTAG	-0.183
CCTGCCCC	-0.0192
CTATTATC	0.104
GACGACCA	-0.153
AATCAGCA	-0.163
ACAACATA	-0.0493
AATTCGCG	0.123
AGGATAAA	-0.0305
ACCAACGC	0.0624
AGGAAACA	0.00018
CTGATGGC	-0.0323
ATTGTTAG	-0.131
GTATTCTA	-0.141
AATTTGTA	0.0191
TAGCTCGA	-0.0077
CCTTCTGC	-0.136
ACCTGCGA	-0.105
GCCGGTAA	0.341
CCGGCCTC	0.269
CATCTCGA	-0.258
AACTAACT	-0.0106
ATAGTTCC	0.15
GCAGAACC	-0.157
CAAATTCG	0.176
TCAAAAGA	-0.0887

Sequence	PBM E-score
CCATCACG	-0.0399
ACACGACC	-0.0307
GTAGTGCA	-0.126
AGACTTGG	-0.281
CTGCTCAC	-0.328
GAACTGTA	0.101
CTGTCAAC	-0.255
GGCATCAA	-0.173
CAAATAGG	-0.194
GGTCTTTA	-0.0369
ATGCGAAC	0.0978
ATCGTTAG	-0.0848
AATCGAGA	-0.115
AACCTGCT	-0.092
CCGCGCTC	0.312
CATTTACG	0.056
ATGCCTAC	-0.241
GTTTGTCA	-0.0804
AGAATTAG	-0.16
TGAAGCAA	-0.284
CCTGACTA	-0.0923
ATAATCTC	0.0896
AAAAGCAA	-0.111
ATCCCGAC	0.34
ATTGGTAG	-0.142

Sequence	PBM E-score
GCCGTAGA	0.129
GGTAAGTA	-0.00483
ACAAGACA	-0.0802
ACCGATAC	0.0537
AGGGGCAG	-0.25
CGTAGTAG	0.0271
ATTTCGAG	0.00422
ATACGGAG	0.425
AATAGCAA	0.00909
GAATCGCA	-0.0817
CGTAGCGC	-0.0805
GCTTCTTA	0.0454
ATGCGTTA	-0.102
GAAGACAC	0.0215
CCGATGGA	0.31
CGTTTAAA	0.0722
CAGTTTAC	-0.251
AGTTTAGC	-0.0113
AATGCACG	0.176
GACCTCGC	0.00628
AAGTCACG	0.0672
ATAATCCC	0.114
